Experimental data as given in PubChem BioAssay AID1240 (Sanford-Burnham Center for Chemical Genomics, 2008).
The campaign covered roughly 50,000 compounds. About 800 (1.6%) showed an effect of 50% or more. This is one part of the list.

target: Bcl-2-like protein 10 (Homo sapiens) (UniProt Q9HD36); assay: TR3 peptide-Bcl-B binding displacers, biochemical primary FP assay, phenotype converters (AID 1240); conditions: GST-Bcl-B / FITC-TR3 peptide fluorescence polarization; stronger effect = higher value; compound at 3.75 mg/L;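 also: 0% = Bcl-B with tracer peptide and DMSO and 100% = tracer peptide lacking Bcl-B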
Chain of UniProt Q9HD36 (Q9HD36 whole entry, looked up): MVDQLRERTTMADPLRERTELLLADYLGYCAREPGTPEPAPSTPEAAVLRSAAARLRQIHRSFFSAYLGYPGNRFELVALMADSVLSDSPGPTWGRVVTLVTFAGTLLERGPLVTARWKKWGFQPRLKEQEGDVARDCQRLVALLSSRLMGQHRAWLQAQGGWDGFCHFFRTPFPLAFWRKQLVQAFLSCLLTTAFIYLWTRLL

SMILES | displacement [%]
Cc1c(NC(=O)c2cc3nc(-c4ccccc4)cc(C)n3n2)c(=O)n(-c2ccccc2)n1C | 18.1
COC(=O)c1c(-c2ccc(OC)c(OC)c2)csc1N | 3.5
Cc1cccc(N2C(=O)/C(=C/c3ccc([N+](=O)[O-])cc3)SC2=S)c1C | -13
O=S(=O)(Nc1ccc(SC(F)F)cc1)c1cccc2cccnc12 | 1.7
CCOC(=O)C1=C(C)NC(=S)NC1c1cn(-c2ccccc2)nc1-c1ccccc1 (configuration not stated) | -1.6
S=C(Nc1ccccc1)Nc1ccc(-c2ccc(NC(=S)Nc3ccccc3)cc2)cc1 | 12.1
Cc1cccc(NC(=O)c2ccccc2[N+](=O)[O-])c1 | -5
Clc1ccc(N2CCN(/N=C\c3ccc(Br)cc3)CC2)cc1 | -1
O=C(CNc1cccc2ccccc12)c1ccc([N+](=O)[O-])cc1 | 11.2
CCC(=O)Nc1sc2c(c1C(=O)Nc1ccccc1OC)CCC2 | 11.9
Cc1ccc(N(CC(=O)Nc2ccc(C(C)C)cc2)S(C)(=O)=O)cc1Cl | 2.8
CCCCC1CCC(c2nc(-c3ccccn3)no2)CC1 (configuration not stated) | -6
O=c1ccn(Cc2ccccc2)c(=O)n1Cc1ccccc1 | -2.3
O=C(NC(=S)Nc1cccc(Cl)c1)c1ccco1 | 12.8
C=CCN1C(=O)/C(=C\c2cn(C)c3ccccc23)C(=O)NC1=S | -18.2
COC(=O)c1c(NC(=O)C2C3C=CC(C3)C2C(=O)O)sc2c1CCC2 (configuration not stated) | 4.1
CN(C1CCS(=O)(=O)C1)S(=O)C12CC3CC(CC(C3)C1)C2 (configuration not stated) | -4.8
CS(=O)(=O)NCCCCNc1ccc(C(F)(F)F)cc1[N+](=O)[O-] | -12
COc1cc(C2C(C(=O)/C=C/c3ccccc3)=C(O)C(=O)N2CCCCCC(=O)O)ccc1O (configuration not stated) | -2.7
COC(=O)c1cc(C(=O)Nc2ccc(C(C)C)cc2)cc([N+](=O)[O-])c1 | 1.1
O=C1CC(N2CCN(C3CC(=O)N(c4ccc(F)cc4)C3=O)CC2)C(=O)N1c1ccc(F)cc1 (configuration not stated) | 5.1
Cc1cccc(NC(=O)c2ccccc2NC(=O)/C=C\c2ccco2)c1C | 11.4
NS(=O)(=O)c1ccc(CNC(=O)Cc2ccccc2[N+](=O)[O-])cc1 | 9.4
O=C(COc1ccc(F)cc1)N1CCN(C(=O)COc2ccc(F)cc2)CC1 | 3.8

SMILES | displacement [%]
O=C1NC(=S)S/C1=C\c1ccccc1C(=O)O | -0.5
O=C(/C=C/c1ccccc1Cl)c1ccc(NC(=O)c2cccs2)cc1 | -2.9
C/C(CCc1oc2ccc(C)cc2c1-c1ccc(C)o1)=N\O | 4.4
O=C(Nc1cccc(C(F)(F)F)c1)c1ccccc1C(F)(F)F | 9.8
CCOc1cccc2c1N(C(=O)c1cccc(F)c1)C(C)(C)c1ssc(=S)c1-2 | -4.9
CC(NC(=O)CSc1nnc(-c2ccco2)n1-c1ccccc1)c1ccccc1 (configuration not stated) | -10.4
Cc1cc(=O)oc2cc(OCCO)ccc12 | 0.4
CC1=C(C(=O)OCc2ccccc2)C(c2ccccc2F)NC(=O)N1 (configuration not stated) | 11
O=C(c1ccc(CN2CCOCC2)cc1)N1CCCC1 | 4.3
COc1cc(CN2CCN(C3CCCC(C)C3)CC2)cc(OC)c1OC (configuration not stated) | 3.1
COc1ccc(-n2cnc3cc(NC(=O)c4ccccc4)ccc32)cc1 | 2.7
O=S(=O)(NCc1ccccc1)c1cccc2cccnc12 | -5.4
O=C1NC(=O)C(=Cc2ccc(-c3cccc(Br)c3)o2)C(=O)N1 | 81.1
CCc1cc(=O)oc2cc(C)cc(OC(C)C(C)=O)c12 (configuration not stated) | 11
COC(=O)c1cccc(NC(=O)COc2ccc(Br)c(C)c2)c1 | -3.4
COc1ccc(-c2nnc(-c3cccc(C)c3)o2)cc1 | 9
O=c1nc(SCc2ccccc2Cl)sc2ccccc12 | 9.1
N#C/C(=C/c1ccccc1Cl)C(=O)Nc1cccc(Br)c1 | -4.9
CCNC(=O)CC1S/C(=N\N=C(/C)c2ccc([N+](=O)[O-])cc2)NC1=O (configuration not stated) | 3.5
Nc1nonc1C(=O)N/N=C/c1cccc(Br)c1 | 5.8
C=CCNC(=O)C(=O)N/N=C/c1ccccc1O | -2.4
COc1ccc(NC2=CC(=O)CC(c3ccco3)C2)cc1OC (configuration not stated) | 3.6
O=C1NC(=O)c2c1cc1ccccc1c2-c1ccccc1 | 11.2
CCCCOc1ccc(-c2nc(-c3ccccc3Cl)no2)cc1 | -1.5

SMILES | displacement [%]
O=C(COC(=O)CSCC(=O)Nc1cccc2ccccc12)Nc1ccc(Br)cn1 | -25.3
COc1ccc(CCNC(=O)COc2ccccc2OC)cc1OC | 2.2
C=CCNCC1OCc2ccccc2CO1 | 9.4
CC1(C)CC1(C#Cc1ccccc1)C(=O)O (configuration not stated) | 11.9
O=C(CCc1ccccc1)Nc1ccc(Cl)cc1C(F)(F)F | 1.1
O=C1c2ccccc2C(=O)N1CCSc1nnc(-c2ccncc2)n1-c1ccccc1 | 2.5
COc1ccc(N=C2NC(=O)CS2)cc1 | -3.4
CCOC(=O)CCc1c(C)nc2cc(-c3ccccc3)[nH]n2c1=O | -4.2
CCCCOP(=O)(C(C)C)C(C)C | -2.3
COc1cc(C2Nc3ccc4ccccc4c3C3=C2C(=O)CC(C)(C)C3)ccc1OCC#N (configuration not stated) | -4
COc1ccc(Cl)cc1NC(=O)C1=C(C)NC(=S)NC1c1cccc([N+](=O)[O-])c1 (configuration not stated) | 12.3
COc1ccccc1/C=C1/SC(=O)N(CNc2cccc([N+](=O)[O-])c2)C1=O | 8.2
Cc1ccc(NCCC(=O)c2cccs2)cc1 | 10.1
CCC(=O)Oc1ccc2c(C)cc(=O)oc2c1I | -16.5
CC(c1ccccc1)N1C(=O)c2ccccc2C1(O)Cc1ccccc1 (configuration not stated) | -4
Cc1ccc(OCc2nnc(NC(=O)Nc3ccc(Cl)c(Cl)c3)s2)cc1 | 13
O=C1C2C3C=CC(CO)(O3)C2C(=O)N1c1cc(C(F)(F)F)ccc1Cl (configuration not stated) | 5.8
O=C(c1ccc(Br)o1)N1CCc2ccccc21 | 10.9
NC(=O)c1ccccc1NC(=O)c1cccc(I)c1 | -7.2
Cc1ccc(C(=O)NC(NC(=S)Nc2ccccc2Br)C(Cl)(Cl)Cl)cc1 (configuration not stated) | -12.1
O=C1CC(N(Cc2ccc3c(c2)OCO3)C(=S)Nc2ccccc2)C(=O)N1c1ccc(F)cc1 (configuration not stated) | -9.6
CCN(CC)C(=O)c1sc(NC(=O)C(C)(C)C)c(C(=O)OC)c1C | 11.4
COc1ccc(C2Nc3ccccc3C(=O)N2c2ccc(Cl)cc2)c(OC)c1 (configuration not stated) | 1.9
Nc1c(Cl)cc2c(c1Oc1ccccc1)C(=O)c1ccccc1C2=O | 8.6
